Experimental data: PubChem BioAssay AID330 (DTP/NCI, 2004)
Inconclusive results and toxic doses are left out. A number of entries come with more than one value. Only these are listed. There may be further records. Values that stand side by side repeat one measurement in other runs, samples, wells, individuals or studies. What stands in brackets tells the records apart. Letters count within one entry. Additions like (4×) say how often a value occurs here.

Test system: P388 leukemia ip, CD2F1 mice, survival T/C
Assay: NCI In Vivo Anticancer Drug Screen. Data for tumor model P388 Leukemia (intraperitoneal) in CD2F1 (CDF1) mice
Details: endpoint: median survival time, higher = longer survival
[1] = dose: 25.0 mg/kg/injection, schedule: Q01DX009 (ip), vehicle: saline with Tween-80

COc1cccc2c1C(=O)c1c(O)c3c(c(O)c1C2=O)C[C@@](O)(C(=O)CO)C[C@@H]3OC1CC(NC=O)C(O)C(C)O1 (stereo not given in full)
T/C (dose: 3.13 mg/kg/injection, schedule: Q01DX009 (ip), vehicle: Klucel (hydroxypropylcellulose) (HPC)): 116 % of control and 154 % of control
T/C (dose: 6.25 mg/kg/injection, schedule: Q01DX009 (ip), vehicle: Klucel (hydroxypropylcellulose) (HPC)): 104 % of control and 157 % of control
T/C (dose: 12.5 mg/kg/injection, schedule: Q01DX009 (ip), vehicle: Klucel (hydroxypropylcellulose) (HPC)): 110 % of control and 170 % of control
T/C (dose: 25.0 mg/kg/injection, schedule: Q01DX009 (ip), vehicle: Klucel (hydroxypropylcellulose) (HPC)): 112 % of control and 200 % of control

NC(Cc1cc([N+](=O)[O-])ccc1CN(CCCl)CCCl)C(=O)O (stereo not given)
T/C (dose: 12.5 mg/kg/injection, schedule: Q01DX001 (ip), vehicle: Klucel (hydroxypropylcellulose) (HPC)): 88 % of control and 186 % of control

CC(C)(C)[Si](C)(C)OC(=O)Nc1ccc(N(CCCl)CCCl)cc1
T/C (dose: 20.0 mg/kg/injection, schedule: Q04DX003 (ip), vehicle: distilled water + Tween-80): 89 % of control and 182 % of control

COc1cc2c(c(OC)c1OC)-c1ccc(OC)c(=O)cc1[C@@H](NC(=O)CCl)CC2
T/C (dose: 0.62 mg/kg/injection, schedule: Q01DX009 (ip), vehicle: saline): 113 % of control and 168 % of control

COc1cccc2c1C(=O)c1c(O)c3c(c(O)c1C2=O)C[C@@](O)(CO)C[C@@H]3OC1CC(N)C(O)C(C)O1 (stereo not given in full)
T/C (dose: 3.13 mg/kg/injection, schedule: Q01DX009 (ip), vehicle: water): 122 % of control and 167 % of control

CCNC(=O)OCc1c(COC(=O)NCC)c(-c2ccc(Cl)c(Cl)c2)n2c1CCC2
T/C [1]: 103 % of control and 165 % of control

C1CN1c1nnc(N2CC2)nn1
T/C (dose: 15.0 mg/kg/injection, schedule: Q01DX005 (ip), vehicle: saline): 88 % of control and 166 % of control

NC(CSC(c1ccccc1)(c1ccccc1)c1ccccc1)C(=O)O (stereo not given)
T/C (dose: 12.0 mg/kg/injection, schedule: Q01DX009 (ip), vehicle: water): 118 % of control and 159 % of control
T/C (dose: 17.8 mg/kg/injection, schedule: Q01DX009 (ip), vehicle: water): 118 % of control, 154 % of control, 159 % of control
T/C [1]: 159 % of control, 169 % of control, 181 % of control [sample A] and 119 % of control [sample B]
T/C (dose: 26.7 mg/kg/injection, schedule: Q01DX009 (ip), vehicle: water): 118 % of control and 163 % of control (2×)

O=C(Nc1ccc(C2=NCCCN2)cc1)c1ccc(C(=O)Nc2ccc(C3=NCCCN3)cc2)cc1
T/C (dose: 6.48 mg/kg/injection, schedule: Q04DX003 (ip), vehicle: Klucel (hydroxypropylcellulose) (HPC)): 121 % of control and 158 % of control

CO[C@H](/C(C)=C/C=C/C(C)=C/c1coc(C)n1)[C@H](C)[C@H]1C[C@@H](O)[C@@]2(C)O[C@H]2/C=C/[C@@H](C)[C@@H]2C[C@@H](CC(=O)O2)C[C@H]2O[C@@H]2C(=O)O1
T/C (dose: 40.0 micrograms/kg/injection, schedule: Q01DX005 (ip), vehicle: Klucel (hydroxypropylcellulose) (HPC)): 116 % of control and 150 % of control

C[As](C)SCC(NC(=O)CCC(N)C(=O)O)C(=O)NCC(=O)O (stereo not given)
T/C (dose: 50.0 mg/kg/injection, schedule: Q01DX009 (ip), vehicle: saline): 113 % of control and 152 % of control

NC(=O)Nc1cc(NC(N)=O)cc(N(CCCl)CCCl)c1
T/C (dose: 5.0 mg/kg/injection, schedule: Q04DX003 (ip), vehicle: water): 100 % of control and 150 % of control
T/C (dose: 10.0 mg/kg/injection, schedule: Q04DX003 (ip), vehicle: water): 116 % of control and 157 % of control

COc1ccc(CC2C(=O)NC(C)C(=O)N(C)C3C(=O)N(C)C(Cc4ccc(O)c(c4)Oc4ccc(cc4)C3O)C(=O)NC(C)C(=O)NC(C)C(=O)N2C)cc1 (stereo not given)
T/C (dose: 0.25 mg/kg/injection, schedule: Q01DX009 (ip), vehicle: saline + alcohol): 113 % of control and 153 % of control
T/C (dose: 0.5 mg/kg/injection, schedule: Q01DX009 (ip), vehicle: Klucel (hydroxypropylcellulose) (HPC)): 116 % of control and 155 % of control
T/C (dose: 0.5 mg/kg/injection, schedule: Q01DX009 (ip), vehicle: saline + alcohol): 116 % of control and 153 % of control
T/C (dose: 2.0 mg/kg/injection, schedule: Q01DX009 (ip), vehicle: Klucel (hydroxypropylcellulose) (HPC)): 120 % of control and 167 % of control

COc1cccc2c1C(=O)c1c(O)c3c(c(O)c1C2=O)C[C@@](O)(C(=O)CO)C[C@@H]3OC1CC(N)C(OC)C(C)O1 (stereo not given in full)
T/C (dose: 0.64 mg/kg/injection, schedule: Q04DX003 (ip), vehicle: saline): 105 % of control and 181 % of control

COc1cc2c(c(OC)c1O)-c1ccc(OC)c(=O)cc1[C@@H](NC(C)=O)CC2
T/C (dose: 20.0 mg/kg/injection, schedule: Q01DX009 (ip), vehicle: Klucel (hydroxypropylcellulose) (HPC)): 90 % of control and 180 % of control
